The supplement of paper PMC8728848
Some of the results follow.

Columns and labels:
Assay in all cases: glycan array binding signal (z-score within array); higher = stronger binding
Conditions in all cases: glycan notation: IUPAC condensed, linker removed; mutation: N288D, K313I
[1] = target: Fuc(a1-3)[Gal3S(b1-4)]GlcNAc
Method in brief: (§1)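 From the Consortium for Functional Glycomics database, 3228 arrays were curated, keeping only those whose protein sequence was available. Binding is given as a within-array Z-score averaged across arrays sharing a protein sequence and across linkers. Negative Z-scores can be read as non-binding.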

[2] = target: Fuc(a1-3)[Gal3S(b1-4)]GlcNAc6S
Method in brief: as §1

[3] = target: Fuc(a1-3)[GalNAc(b1-4)]GlcNAc
Method in brief: as §1

[4] = target: Fuc(a1-3)[GalNAc(b1-4)]GlcNAc6S
Method in brief: as §1

[5] = target: Fuc(a1-4)GlcNAc
Method in brief: as §1

[6] = target: Fuc(b1-3)GlcNAc
Method in brief: as §1

[7] = target: Gal(a1-2)Gal
Method in brief: as §1

[8] = target: Gal(a1-3)Gal
Method in brief: as §1

[9] = target: Gal(a1-3)Gal(b1-3)GlcNAc
Method in brief: as §1

[10] = target: Gal(a1-3)Gal(b1-3)GlcNAc(b1-2)Man
Method in brief: as §1

[11] = target: Gal(a1-3)Gal(b1-3)GlcNAc(b1-2)Man(a1-3)[Gal(a1-3)Gal(b1-3)GlcNAc(b1-2)Man(a1-6)]Man(b1-4)GlcNAc(b1-4)GlcNAc
Method in brief: as §1

[12] = target: Gal(a1-3)Gal(b1-3)GlcNAc(b1-3)GalNAc
Method in brief: as §1

[13] = target: Gal(a1-3)Gal(b1-3)GlcNAc(b1-6)GalNAc
Method in brief: as §1

[14] = target: Gal(a1-3)Gal(b1-3)[Fuc(a1-4)]GlcNAc(b1-2)Man(a1-3)[Gal(a1-3)Gal(b1-3)[Fuc(a1-4)]GlcNAc(b1-2)Man(a1-6)]Man(b1-4)GlcNAc(b1-4)GlcNAc
Method in brief: as §1

[15] = target: Gal(a1-3)Gal(b1-4)Glc
Method in brief: as §1

[16] = target: Gal(a1-3)Gal(b1-4)GlcNAc
Method in brief: as §1

[17] = target: Gal(a1-3)Gal(b1-4)GlcNAc(b1-2)Man
Method in brief: as §1

[18] = target: Gal(a1-3)Gal(b1-4)GlcNAc(b1-2)Man(a1-3)[Gal(a1-3)Gal(b1-4)GlcNAc(b1-2)Man(a1-6)]Man(b1-4)GlcNAc(b1-4)GlcNAc
Method in brief: as §1

[19] = target: Gal(a1-3)Gal(b1-4)GlcNAc(b1-3)GalNAc
Method in brief: as §1

[20] = target: Gal(a1-3)Gal(b1-4)GlcNAc(b1-6)GalNAc
Method in brief: as §1

[21] = target: Gal(a1-3)Gal(b1-4)[Fuc(a1-3)]GlcNAc
Method in brief: as §1

[22] = target: Gal(a1-3)Gal(b1-4)[Fuc(a1-3)]GlcNAc(b1-2)Man(a1-3)[Gal(a1-3)Gal(b1-4)[Fuc(a1-3)]GlcNAc(b1-2)Man(a1-6)]Man(b1-4)GlcNAc(b1-4)GlcNAc
Method in brief: as §1

[23] = target: Gal(a1-3)GalNAc
Method in brief: as §1

[24] = target: Gal(a1-3)[Gal(a1-4)]Gal(b1-4)GlcNAc
Method in brief: as §1

[25] = target: Gal(a1-4)Gal(b1-3)GlcNAc(b1-2)Man(a1-3)[Gal(a1-4)Gal(b1-3)GlcNAc(b1-2)Man(a1-6)]Man(b1-4)GlcNAc(b1-4)GlcNAc
Method in brief: as §1

[26] = target: Gal(a1-4)Gal(b1-4)Glc
Method in brief: as §1

[27] = target: Gal(a1-4)Gal(b1-4)GlcNAc
Method in brief: as §1

[28] = target: Gal(a1-4)Gal(b1-4)GlcNAc(b1-2)Man(a1-3)[Gal(a1-4)Gal(b1-4)GlcNAc(b1-2)Man(a1-6)]Man(b1-4)GlcNAc(b1-4)GlcNAc
Method in brief: as §1

[29] = target: Gal(a1-4)Gal(b1-4)GlcNAc(b1-3)Gal(b1-4)Glc
Method in brief: as §1

[30] = target: Gal(a1-4)GlcNAc
Method in brief: as §1

[31] = target: Gal(a1-6)Glc
Method in brief: as §1

[32] = target: Gal(b1-2)Gal
Method in brief: as §1

[33] = target: Gal(b1-3)Gal
Method in brief: as §1

[34] = target: Gal(b1-3)Gal(b1-4)GlcNAc
Method in brief: as §1

[35] = target: Gal(b1-3)GalNAc
Method in brief: as §1

[36] = target: Gal(b1-3)GalNAc(a1-3)[Fuc(a1-2)]Gal(b1-4)Glc
Method in brief: as §1

[37] = target: Gal(b1-3)GalNAc(a1-3)[Fuc(a1-2)]Gal(b1-4)GlcNAc
Method in brief: as §1

[38] = target: Gal(b1-3)GalNAc(b1-3)Gal
Method in brief: as §1

[39] = target: Gal(b1-3)GalNAc(b1-3)Gal(a1-4)Gal(b1-4)Glc
Method in brief: as §1

[40] = target: Gal(b1-3)GalNAc(b1-4)Gal(b1-4)Glc
Method in brief: as §1

[41] = target: Gal(b1-3)GalNAc(b1-4)[Neu5Ac(a2-3)]Gal(b1-4)Glc
Method in brief: as §1

[42] = target: Gal(b1-3)GlcNAc
Method in brief: as §1

[43] = target: Gal(b1-3)GlcNAc(a1-3)Gal(b1-4)GlcNAc
Method in brief: as §1

[44] = target: Gal(b1-3)GlcNAc(a1-6)Gal(b1-4)GlcNAc
Method in brief: as §1

[45] = target: Gal(b1-3)GlcNAc(b1-2)Man
Method in brief: as §1

B1: Langerin (Homo sapiens), Q9UJ71 (protein)
chain: STLNAQIPELKSDLEKASALNTKIRALQGSLENMSKLLKRQNDILQVVSQGWKYFKGNFYYFSLIPKTWYSAEQFCVSRNSHLTSVTSESEQEFLYKTAGGLIYWIGLTKAGMEGDWSWVDDTPFNKVQSARFWIPGEPNDAGNNEHCGNIKAPSLQAWNDAPCDITFLFICKRPYVPSEP
[1]
  glycan array binding signal (z-score): 0.041
[2]
  glycan array binding signal (z-score): 0.085
[3]
  glycan array binding signal (z-score): 0.162
[4]
  glycan array binding signal (z-score): 0.077
[5]
  glycan array binding signal (z-score): -0.14
[6]
  glycan array binding signal (z-score): -0.243
[7]
  glycan array binding signal (z-score): -0.241
[8]
  glycan array binding signal (z-score): -0.143
[9]
  glycan array binding signal (z-score): -0.153
[10]
  glycan array binding signal (z-score): -0.205
[11]
  glycan array binding signal (z-score): 0.038
[12]
  glycan array binding signal (z-score): -0.173
[13]
  glycan array binding signal (z-score): 10.4
[14]
  glycan array binding signal (z-score): -0.042
[15]
  glycan array binding signal (z-score): -0.169
[16]
  glycan array binding signal (z-score): 0.035
[17]
  glycan array binding signal (z-score): -0.284
[18]
  glycan array binding signal (z-score): 0.041
[19]
  glycan array binding signal (z-score): -0.069
[20]
  glycan array binding signal (z-score): -0.195
[21]
  glycan array binding signal (z-score): -0.211
[22]
  glycan array binding signal (z-score): -0.083
[23]
  glycan array binding signal (z-score): -0.111
[24]
  glycan array binding signal (z-score): -0.019
[25]
  glycan array binding signal (z-score): -0.106
[26]
  glycan array binding signal (z-score): 0.698
[27]
  glycan array binding signal (z-score): -0.156
[28]
  glycan array binding signal (z-score): -0.269
[29]
  glycan array binding signal (z-score): -0.119
[30]
  glycan array binding signal (z-score): -0.247
[31]
  glycan array binding signal (z-score): -0.032
[32]
  glycan array binding signal (z-score): -0.153
[33]
  glycan array binding signal (z-score): -0.11
[34]
  glycan array binding signal (z-score): -0.366
[35]
  glycan array binding signal (z-score): -0.221
[36]
  glycan array binding signal (z-score): -0.171
[37]
  glycan array binding signal (z-score): -0.246
[38]
  glycan array binding signal (z-score): -0.221
[39]
  glycan array binding signal (z-score): -0.043
[40]
  glycan array binding signal (z-score): -0.063
[41]
  glycan array binding signal (z-score): -0.17
[42]
  glycan array binding signal (z-score): -0.17
[43]
  glycan array binding signal (z-score): -0.321
[44]
  glycan array binding signal (z-score): -0.25
[45]
  glycan array binding signal (z-score): -0.223
